“And” between values parts separate entries of the source, which are not always exact repeats. Equal values may be shown once. In all, about 350,000 compounds went through this assay and about 260 (0.074%) were called active. The inconclusive results got no clear call from the source; some entries with a clear call stand among them for comparison. Calls follow the shape of the dose curve; as a rule, active = well fitted inhibition curve with a large enough effect; inconclusive = small, poorly fitted or top-dose-only effect; inactive = no such curve, though single readings can be large or run the other way. Potencies of inconclusive entries are doubtful fits and often do not repeat.
What follows are compounds tested against Ferritin light chain (Equus caballus) (UniProt P02791) (assay: qHTS Assay for Identification of Novel General Anesthetics). Conditions: apoferritin/1-aminoanthracene competitive binding, fluorescence; series mostly up to 77.5 µM.
Outline: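 Steps: apoferritin (10 uM) was premixed with half-saturated 1-AMA in PBS, compounds were pin-transferred, plates stood 10 min at room temperature, fluorescence was read at 380/535 nm, and curves were fitted with a Hill equation.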
Also: nearly all actives have a fitted effect of over 20% in size.
Potency is read from the fitted curve at half-maximal effect; tags tell the direction and shape of the fitted curve.

Chain of UniProt P02791 (P02791 whole entry, looked up): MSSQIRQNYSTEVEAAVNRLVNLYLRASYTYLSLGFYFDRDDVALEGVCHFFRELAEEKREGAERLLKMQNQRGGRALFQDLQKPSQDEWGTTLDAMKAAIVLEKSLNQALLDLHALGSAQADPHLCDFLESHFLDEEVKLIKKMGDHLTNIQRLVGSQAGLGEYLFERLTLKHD

| Compound | Potency |
| --- | --- |
| CC1CC(C)CN(C(=O)c2cc3c(s2)CCC3)C1 (centres undefined) | inconclusive: 28.2 µM [inhibitor, partial curve] |
| CCn1c(O)c(C=Nc2ccccc2)sc1=S | inactive |
| O=C(OCCCOC(=O)c1ccc(O)cc1)c1ccc(O)cc1 | inconclusive: 35.5 µM [inhibitor, partial curve] |
| CC(C)(C)C1CCc2c(C(=O)NNC(=O)/C=C/C(=O)O)csc2C1 (centres undefined) | inconclusive: 39.8 µM [inhibitor, single point] |
| CCOc1cc(C(=O)NCCN2C(=O)S/C(=C\c3cccnc3)C2=O)cc(OCC)c1OCC | inconclusive: 39.8 µM [inhibitor, partial curve] |
| O=C(C1CCC(CNS(=O)(=O)c2cccc3nsnc23)CC1)N1CC=C(c2ccccc2)CC1 (centres undefined) | inconclusive: 3.55 µM [inhibitor, full curve, poor fit] |
| CC(=O)c1cccc(NC(=S)NC2CCCCCCC2)c1 | inconclusive: 25.1 µM [inhibitor, partial curve] |
| CC(=O)OCC1=C(C(=O)O)N2C(=O)C(NC(=O)c3ccc(COc4cccc(Cl)c4Cl)o3)C2SC1 (centres undefined) | inconclusive: 35.5 µM [inhibitor, partial curve] |
| COc1ccc(OC)c(Nc2nc(NCCCN(C)C)nc(N)c2[N+](=O)[O-])c1 | inactive |
| Cn1c(=O)c(=O)n(C)c2cc([N+](=O)[O-])c([N+](=O)[O-])cc21 | inactive |
| Cn1c(NCc2c[nH]c3ccccc23)nc2ccccc21 | inconclusive: 50.1 µM [inhibitor, single point] |
| Cc1ccc(CNC(=O)c2ccc(CN3CCOCC3)cc2)cc1 | inconclusive: 39.8 µM [inhibitor, single point] |
| CC(=O)N[C@@H](C)c1nc2ccccc2n1CCCN1CCN(c2nc(-c3ccc(C)cc3)cs2)CC1 | inactive |
| CN(C)S(=O)(=O)c1cccc(-c2cn3cc(Cl)ccc3n2)c1 | inactive |
| Cc1ccc(CNc2nccn(-c3cc(C)cc(C)c3)c2=O)cc1 | inconclusive: 44.7 µM [inhibitor, single point] |
| CCC1=C(OC(=O)N(CC)CC)N2C(=O)OC(=NCC3CC3)[C@]2(Cc2ccccc2)[C@H]2C1=CC[C@H]1C(=O)NC(=O)[C@H]12 | inconclusive: 39.8 µM [inhibitor, single point] |
| O=C1c2ccccc2C2=Nc3ccccc3SC(c3ccccc3F)C12 (centres undefined) | inconclusive: 15.8 µM [inhibitor, partial curve] |
| COc1ccc(CNC(=O)[C@H]2C[C@@H]2[C@H](NP(=O)(c2ccccc2)c2ccccc2)c2ccccc2)cc1OC | inconclusive: 39.8 µM [inhibitor, single point] |
| Cn1c(SCc2ccccc2F)nc2cccnc21 | inconclusive: 28.2 µM [inhibitor, single point] |
| CC1Cc2ccccc2N1C1=CC(=O)CCC1 (centres undefined) | inconclusive: 28.2 µM [inhibitor, single point] |
| Cc1ccc(CNC(=O)CS(=O)Cc2nc(-c3ccccc3C)oc2C)cc1 (centres undefined) | inconclusive: 35.5 µM [inhibitor, single point] |
| Cc1cc(C(c2nnnn2Cc2ccccc2)N2CCOCC2)c(C)n1-c1ccc2c(c1)OCO2 (centres undefined) | inconclusive: 44.7 µM [inhibitor, single point] |

| Compound | Potency |
| --- | --- |
| CC12CCC(=O)N1C(C(=O)Nc1nc3c(F)cc(F)cc3s1)CS2 (centres undefined) | inconclusive: 11.2 µM [inhibitor, partial curve] |
| O=C(CSc1n[nH]c(=O)n1C1CC1)Nc1ccccc1 | inactive |
| Cc1nnsc1NC(=O)OCc1ccc(Cl)cc1Cl | inconclusive: 14.1 µM [inhibitor, partial curve] |
| O=C(Oc1ccccc1C(=O)Nc1ccccc1)c1ccc(Br)c([N+](=O)[O-])c1 | inactive |
| Cc1ccc(OCC(=O)OCc2cc(=O)n3nc(C4CC4)sc3n2)cc1 | inconclusive: 25.1 µM [inhibitor, partial curve] |
| Cc1ccc(OCCCSc2nc(-c3ccc(C(C)(C)C)cc3)nc3cc(=O)[nH]n23)cc1C | inconclusive: 25.1 µM [inhibitor, partial curve] |
| COc1ccc(C(=O)NC(c2ccc(Cl)cc2)c2cc(Cl)c3cccnc3c2O)cc1 (centres undefined) | inactive |
| COc1cc(Br)cc(CNc2ccc(F)c([N+](=O)[O-])c2)c1O | inconclusive: 8.91 µM [inhibitor, partial curve] |
| O=c1ccn(-c2cccc(C(F)(F)F)c2)nc1-c1ccn(-c2ccccc2F)n1 | inconclusive: 28.2 µM [inhibitor, partial curve] |
| CCn1c(COc2cccc(OC)c2)nnc1SCC(=O)Nc1ccccc1C(=O)OC | inconclusive: 25.1 µM [inhibitor, partial curve] |
| CCCc1nn(C)c2c(=O)[nH]c(-c3ccccc3OCC)nc12 | inactive |
| Cc1cccn2c(=O)c3cc(C(=O)NC4CCCCC4)c(=N)n(Cc4ccccc4)c3nc12 | inconclusive: 28.2 µM [inhibitor, partial curve, poor fit] |
| COc1ccc(-c2[nH]nc3c2C(c2ccsc2)C(C#N)=C(N)O3)cc1 (centres undefined) | inconclusive: 15.8 µM [inhibitor, partial curve] |
| Cc1cc(C)cc(NC(=O)CCC(=O)N2CCSc3ccccc32)c1 | inconclusive: 35.5 µM [inhibitor, partial curve] and inconclusive: 22.4 µM [inhibitor, partial curve] |
| Cn1cccc1/C=N/NC(=O)C12CC3CC(CC(C3)C1)C2 | inconclusive: 50.1 µM [inhibitor, single point] |
| CN(C)c1ccc(NC(=O)CSC2=Nc3ccccc3C3=NC(CCC(=O)NCc4cccs4)C(=O)N23)cc1 (centres undefined) | inconclusive: 14.1 µM [inhibitor, partial curve, poor fit] |
| Cc1cc(NC(=O)Cc2ccsc2)ccc1Br | inconclusive: 50.1 µM [inhibitor, single point] |
| NS(=O)(=O)c1ccc2nc(NC(=O)COc3ccc(Cl)cc3Cl)sc2c1 | inconclusive: 31.6 µM [inhibitor, single point] |
| C/C(CC(=O)NC12CC3CC(CC(C3)C1)C2)=N\NC(=O)Cc1cccs1 | inconclusive: 44.7 µM [inhibitor, single point] |
| CCc1c(O)nc(SC2CC(=O)N(c3ccc(F)c(Cl)c3)C2=O)[nH]c1=O (centres undefined) | inconclusive: 10 µM [inhibitor, partial curve] |
| Cc1ccc(-n2nc(C)c3c(C)c(CCC(=O)NCc4ccco4)c(C)nc32)cc1 | inactive |
| O=S(=O)(Nc1cccc(CCc2ccccn2)c1)c1cc(Cl)ccc1Cl | inconclusive: 25.1 µM [inhibitor, partial curve] |

| Compound | Potency |
| --- | --- |
| CCCc1ccc(Oc2cn[nH]c2-c2ccc(O)cc2O)cc1 | inconclusive: 15.8 µM [inhibitor, partial curve] |
| CCN(CC)CCCNC(=O)c1ccc2c(Cl)c3c(nc2c1)CCCC3 | inconclusive: 31.6 µM [inhibitor, partial curve] and inconclusive: 31.6 µM [inhibitor, single point] |
| CCOC(=O)c1c(Oc2ccc(C(C)=O)cc2)nnc(-c2ccccc2)c1-c1ccccc1 | inconclusive: 31.6 µM [inhibitor, partial curve] |
| O=C(CN1CCCCC1)Nc1nnc(-c2ccc([N+](=O)[O-])cc2)s1 | inconclusive: 35.5 µM [inhibitor, partial curve] |
| O=C(Nc1ccc2oc(-c3cccnc3)nc2c1)c1cccnc1 | inactive |
| COc1ccccc1-n1cnc2c(c1=O)c1nc3ccccc3nc1n2-c1ccc(C)cc1 | inactive |
| CCCCn1c(-c2ccc(C(C)(C)C)cc2)nc2cc3[nH]c(=O)c(C(C)C)nc3cc21 | inconclusive: 50.1 µM [inhibitor, single point] |
| O=C(COC(=O)CCC(=O)c1ccc(F)cc1)Nc1cccc(S(=O)(=O)N2CCOCC2)c1 | inconclusive: 20 µM [inhibitor, partial curve] |
| Cc1cccc(-c2nc(CSCC(=O)NCc3cccs3)c(C)o2)c1 | inconclusive: 39.8 µM [inhibitor, partial curve] |
| O=S(=O)(Nc1ccc(S(=O)(=O)Nc2cccc3ccccc23)cc1)c1ccccc1 | inconclusive: 22.4 µM [inhibitor, partial curve] |
| O=C(NC(=S)Nc1ncc(Br)cc1Br)c1cncc(Br)c1 | inactive |
| Cc1nnc(SCc2cccc(CSc3nnc(C)s3)c2)s1 | inconclusive: 50.1 µM [inhibitor, single point] |
| O=C(N/N=C/c1ccco1)c1cc(-c2cccc3ccccc23)n[nH]1 | inconclusive: 11.2 µM [inhibitor, partial curve] |
| Cc1ccc(NC(=O)CSc2ncc3ccccn23)cc1C | inconclusive: 35.5 µM [inhibitor, partial curve] |
| O=S(=O)(c1ccc2c(c1)OCCO2)N1CCC(n2cnc3cc(F)ccc32)CC1 | inactive |
| O=C(CSc1nc(-c2ccc(F)cc2)cc(C(F)(F)F)n1)NCc1ccco1 | inactive |
| CC1CCCCN1CCCNC(=O)c1cc(Sc2ccc(Cl)cc2)nc2ccccc12 (centres undefined) | inconclusive: 10 µM [inhibitor, partial curve] |
| Cc1nc2cc(-c3ccccc3)sc2c(=O)n1N | inactive |
| Cc1nc2scc(C)n2c(=O)c1S(=O)(=O)Nc1cccc(C(F)(F)F)c1 | inconclusive: 28.2 µM [inhibitor, partial curve] |
| Cc1nonc1OC(C)CNc1ccc([N+](=O)[O-])cc1 (centres undefined) | active: 31.6 µM |

From PubChem BioAssay AID485281 (National Center for Advancing Translational Sciences (NCATS), 2010)
